Holding throughout (assay): Primary Screen for Target Class Profiling of Small Molecule Inhibitors of Methyltransferases
The target of test [1] is Glycine N-methyltransferase (Homo sapiens) (UniProt Q14749). Conditions: purified enzyme, MTase-Glo SAH luminescence; measured here: GNMT inhibition; at 40 µM; stronger effect = lower value. A digest of the protocol:
(§1)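 Each enzyme was reacted with SAM and its substrate, with compounds tested once at 40 uM; SAH formed was read by MTase-Glo luminescence.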

The target of test [2] is Guanidinoacetate N-methyltransferase (Homo sapiens) (UniProt Q14353). To be noted: purified enzyme, MTase-Glo SAH luminescence; measured here: GAMT inhibition; at 40 µM; stronger effect = lower value. The essentials:
as §1

Test [3] deals with Histamine N-methyltransferase (Homo sapiens) (UniProt P50135). To be noted: purified enzyme, MTase-Glo SAH luminescence; measured here: HNMT inhibition; at 40 µM; stronger effect = lower value. The essentials: as §1
In test [4] the target is Nicotinamide N-methyltransferase (Homo sapiens) (UniProt P40261). To be noted: purified enzyme, MTase-Glo SAH luminescence; measured here: NNMT inhibition; at 40 µM; stronger effect = lower value. A digest of the protocol: as §1
The target of test [5] is Phenylethanolamine N-methyltransferase (Homo sapiens) (UniProt P11086). Conditions: purified enzyme, MTase-Glo SAH luminescence; measured here: PNMT inhibition; at 40 µM; stronger effect = lower value. The essentials:
as §1

This is one part of the list. These are further read-outs of the screen, such as a control signal, another cell line or another target. No call is given for them.
On the % scale 0 is the no-effect control and ±100 the full control effect.

On to `CC1CCC2C(C)(C)C(O)CCC2(C)C12Cc1c(O)cc3c(c1O2)CN(C(CCCN=C(N)N)C(=O)O)C3=O` (stereo not given), for which the activity change, negative = inhibition in test [1] is -1.01%; in test [2], -2.92%; in test [3], 11.5%; in test [4], -11.4%; in test [5], -3.02%.
Taken in the same sequence, the figures for `CCCn1c(=O)c2ccc(C(=O)NC3CCCC3)cc2n2c(=O)n(CC(=O)NC(C)CC)nc12` (stereo not given) were 2.02%, 1.52%, 4.37%, -3.39% and -1.97%.
With `Cc1cccc(OCC(=O)c2ccc3c(c2)N(C(C)C(=O)N2CCOCC2)C(=O)CO3)c1C` (stereo not given), the activity change, negative = inhibition in test [1] was -3.88%; in test [2] it was -3.51%; in test [3], -3.45%; in test [4] it was -7.54%; in test [5] it was -0.355%.
As for `Cc1ccc(Cc2nn3c(SCC(=O)NC4CCCCC4)nnc3[nH]c2=O)cc1`, the activity change, negative = inhibition in test [1] turned out to be 13.3%; in test [2] it was 3.96%; in test [3], 8.85%; in test [4], 0.963%; in test [5], 4.47%.
Regarding `Clc1ccc(C2Nc3ccc(Br)cc3C3C=CCC32)cc1` (stereo not given), the activity change, negative = inhibition in test [1] is -10.9%; in test [2], -5.79%; in test [3], -9.47%; in test [4], -15%; in test [5], -6.81%.
Consider `O=S(=O)(NCCn1cnc2ccccc21)c1cccc(Cl)c1`, for which the activity change, negative = inhibition in test [1] was -3.71%; in test [2] it was -0.099%; in test [3], -3.29%; in test [4], -1.05%; in test [5], 0.164%.
In the case of `CC(C)CCNC(=O)C1(C)Cn2c(cc3ccccc32)C(=O)N1c1ccc(Cl)cc1` (stereo not given), the activity change, negative = inhibition in test [1] stood at 4.45%; in test [2] it was 3.45%; in test [3], 6.14%; in test [4], 8.32%; in test [5], 1.24%.
For the compound `Cn1c(=O)c2ccc(C(=O)NC3CCCCC3)cc2n2c(=O)n(Cc3ccccc3)nc12`, the activity change, negative = inhibition is -1.69% in test [1]; 0.907% in test [2]; 2.44% in test [3]; -7.54% in test [4]; -3.71% in test [5].
`COc1cc(OC)cc(N2C(=O)c3cc(-c4ccccc4)nn3CC2(C)C(=O)NCc2ccccc2OC)c1` (stereo not given): the activity change, negative = inhibition in test [1] was -2.02%; in test [2], -0.775%; in test [3], 2.26%; in test [4], -3.25%; in test [5], -1.35%.
Taken in the same sequence, the figures for `CC[C@@](C)(Nc1ccnc(-c2c[nH]c3ncccc23)n1)C(=O)NCC(F)(F)F` were -9.91%, 1.44%, -3.21%, -12.9% and -4.4%.
Regarding `CCN1C(=O)c2c(C(=O)NCCc3ccc(OC)cc3OC)ncn2CC1(C)C(=O)NC1CCCC1` (stereo not given), the activity change, negative = inhibition was -3.19% in test [1]; 0% in test [2]; 4.77% in test [3]; -4.74% in test [4]; 2.27% in test [5].
In the case of `CCN1C(=O)C2CC3(CCN(C(=O)c4cc(C)n(CCOC)c4C)CC3)CN2C1=O` (stereo not given), the activity change, negative = inhibition in test [1] was -2.13%; in test [2] it was -7.83%; in test [3], 0.366%; in test [4], -5.79%; in test [5] it was 0.138%.
Regarding `O=C(CN1CC2CC(C1)[C@H]1CCCC(=O)N1C2)N1CCN(c2ccc(Cl)cc2)CC1` (stereo not given in full), the activity change, negative = inhibition in test [1] is -4.64%; in test [2] it was 1.98%; in test [3] it was -1.01%; in test [4], -3.28%; in test [5], 6.63%.
On the same counts, the results for `CN1CCN(C2Cc3ccccc3Sc3ccc(Cl)cc32)CC1` (stereo not given) are 10.3%, 12.7%, -19.4%, -34.6% and -2.72%.
On to `c1cc2c(cc1CN1CCOCC1)CNCCO2`, for which the activity change, negative = inhibition is -0.092% in test [1]; 3.43% in test [2]; 1.22% in test [3]; -4.13% in test [4]; 13.9% in test [5].
On the same counts, the results for `CC(C)CCNc1nc2c(-c3ccc(Cl)cc3)nnn2c2ccccc12` are -1.98%, 3.22%, -1.86%, -8.44% and -4.13%.
Consider `CC1(C)CCC[C@@]2(C)C1[C@H](OC(=O)/C=C/C=C/C(=O)O)C=C1COC(=O)[C@@]12O` (stereo not given in full), for which the activity change, negative = inhibition was 4.09% in test [1]; 7.91% in test [2]; 12.4% in test [3]; -3.68% in test [4]; 5.97% in test [5].
In the case of `COc1cc(/C=C/C(=O)O[C@H]2[C@H](O)[C@@H](CO)O[C@@]2(CO)O[C@H]2O[C@H](CO)[C@@H](O)[C@H](O)[C@H]2O)ccc1O`, the activity change, negative = inhibition in test [1] is 0%; in test [2], 4.57%; in test [3], 1.68%; in test [4], -7.93%; in test [5], 6.04%.
For `C=C(C)[C@@H]1CC[C@](C)(O)[C@@H](OC(=O)c2ccccc2)C1`, the activity change, negative = inhibition in test [1] is -2.17%; in test [2], -5.29%; in test [3] it was 8.25%; in test [4] it was -20.1%; in test [5], -1.32%.
`CC1=CCC2C(C)(CO)CCCC2(CO)C1CO` (stereo not given): the activity change, negative = inhibition in test [1] is -0.017%; in test [2] it was 1.57%; in test [3], 4.57%; in test [4], -10.7%; in test [5] it was 3.88%.
Regarding `COc1ccc(CN2C(=O)c3cc4sccc4n3CC2(C)C(=O)NC2CCC(C)CC2)cc1` (stereo not given), the activity change, negative = inhibition in test [1] was 1.33%; in test [2], 0.597%; in test [3], 0.498%; in test [4] it was -1.17%; in test [5] it was -0.62%.
Taken in the same sequence, the figures for `CC(C)NC(=O)[C@@H]1C[C@@H](N)CN1C(=O)c1cccc2ccccc12` were -2.66%, -6.55%, -3.05%, -4.08% and -5.88%.
As to `O=C(CCCc1nnc2n3nc(-c4ccccc4)nc3c3ccccc3n12)N1CCN(c2ccc(F)cc2)CC1`, the activity change, negative = inhibition in test [1] was -12%; in test [2], 5.54%; in test [3], 1.59%; in test [4] it was -0.026%; in test [5], -5.51%.
Turning to `Cc1ccccc1CN1C(=O)c2cc3sccc3n2CC1(C)C(=O)NC1CCCCCCC1` (stereo not given), the activity change, negative = inhibition stood at 8.06% in test [1]; 0.041% in test [2]; 9.43% in test [3]; 7.76% in test [4]; 2.23% in test [5].
As for `O=C1CCN(C(=O)c2cc3ccccc3[nH]2)CCCCCCN1`, the activity change, negative = inhibition was -3.5% in test [1]; -2.52% in test [2]; -0.732% in test [3]; -5.63% in test [4]; -13.2% in test [5].
Taken in the same sequence, the figures for `COc1ccccc1Nc1nc2c(S(=O)(=O)c3ccc(C)cc3)nnn2c2ccccc12` were 4.01%, 1.97%, 4.74%, 8.06% and -2.05%.
With `COc1cc(CO)ccc1O[C@@H]1O[C@H](CO)[C@@H](O)[C@H](O)[C@H]1O`, the activity change, negative = inhibition in test [1] was -0.897%; in test [2] it was -5.5%; in test [3] it was 4.75%; in test [4], -13.2%; in test [5] it was -1.17%.
Taken in the same sequence, the figures for `CC(=O)OC1[C@H]2[C@@H](C[C@@H](C)[C@@H]3C=CC(=O)[C@@]13C)OC(=O)[C@@H]2C` (stereo not given in full) were -6.12%, -8.15%, 5.17%, -16% and 2.13%.
On to `O=C(CCCc1c[nH]c2ccccc12)N1CCc2nc3cc[nH]n3c(=O)c2C1`, for which the activity change, negative = inhibition in test [1] was -8.11%; in test [2] it was -9.84%; in test [3] it was -7.37%; in test [4], -11.9%; in test [5], -17.4%.

The values above are taken from PubChem BioAssay AID1745853 (National Center for Advancing Translational Sciences (NCATS), 2022).
